Where two headings read alike, the source gives them in different places. Marks after values point to notes of the source that are not given here.

Here are results for three molecules from patent US8318743B2, “Medicament for the enhancement of cognitive function and neuroprotection” (Egis Gyogyszergyar Nyilvanosan Mukodo Reszvenytarsasag, priority 2006, dated 2012).

Test [1] has as its system Male SPRD rats. As to the kind of experiment: scopolamine-induced memory deficit in eight-arm radial maze. The settings on record: for degradation of memory resulting from scopolamine treatment: 0.01 mg/kg intraperitoneally, all three parameters. It is filed as in vivo, rat. An excerpt: The eight-arm radial maze test is suitable for the study of learning and memory processes and also for the screening of drug candidates influencing such processes.
The apparatus consists of an octagonal central stage (diameter 30 cm, height 25 cm) and eight arms of 70 cm length having 11 cm height attached to the central stage and having their opposite end closed by a feed container. The base of the maze is stainless steel, the walls and the ceiling are made of plexiglass. The feed containers are made of stainless steel.
The light-dark cycle of the animals is 12-12 hours, and the light is switched on at 7:00 am. The test were carried out in the light cycle (between 9:00 am and 3:00 pm).
During the so-called dietetic period, the animals are partially fasted, since the famish drive is used for learning. Therefore animals are kept on a diet consisting of 2 piece of standard feed pellet/day for one week. After one week, the body weight of the animals reaches approximately 80 to 85% of that of the normally fed animals.
During the acclimatizing period, the animals are placed in the maze for 10 minutes on the first two days. Each feed container is filled with a small piece of biscuit. Animals are provided with feed after visiting the maze only.
During the learning period, which lasts for 10 to 12 days, the animal should learn to find all pieces of biscuits in the maze and to avoid entering those arms are which have already been visited. After spending five minutes in the maze, the animals are returned into their cages where the daily feed portion is served.
The aim of the selection phase performed after the learning phase is that only those animals would be selected to participate the experiment which have learned the task, i.e. which animal errs maximum once from three trials (TE<=1 and ICR>=7, t<=5 minutes). The movement of the animal was monitored using a video camera, which was set up in the neighboring room.
During the actual testing, the animals were divided into three groups: C (control), S (scopolamine) and T (test). The animals of group C as absolute controls were treated i.p. with a vehicle (0.4% methylcellulose, pre-treatment time 40 minutes) and subcutaneously with solvent (saline, pre-treatment time: 30 minutes). Groups S was treated i.p. with a vehicle and subcutaneously with 0.5 mg/kg scopolamine. […] Group T was treated intraperitoneally with 0.01 mg/kg dose of 4-chloro-5-{2-[4-(6-fluoro-1,2-benz[d]isoxazole-3-yl)piperidin-1-yl]ethyl-amino}-2-methyl-3-(2H)pyridazinone or 0.01 mg/kg risperidone, respectively and with 0.5 mg/kg dose of scopolamine subcutaneously.
During the testing, the animals were placed in the maze individually, and their movement was monitored using a video camera. When the animals completed their task, they were removed from the maze.
The evaluation of the results comprised the determination of the following variables: number of initial correct answers; number of total errors (TE error); number of arms which were entered multiple occasions (WM error), number of arms which were not entered (RM error), number of arms entered before the first error (ICR). […] The RM error indicates the damage of the reference memory, since the animal cannot recall which arms should be entered (in the present test, all of them).
The statistical evaluation was carried out by variance analysis. The differences between groups were determined by Duncan-test.

Test [2] relates to Male SPRD rats. The settings on record: for Dead cerebral volume mm^3 ± SE: 48 hours after surgery; for Effect %: dead cerebral volume versus control.
Where [3] appears, read: scopolamine 0.5 mg/kg alone (group S, vehicle i.p.).
Where [4] appears, read: 0.01 mg/kg intraperitoneally + 0.5 mg/kg scopolamine.
The mark [5] stands for this setting: 0.01 mg/kg ip 30 minutes after surgery.
[6] abbreviates: 0.03 mg/kg ip 30 minutes after surgery.
Where [7] appears, read: 0.1 mg/kg ip 30 minutes after surgery.
The mark [8] stands for this setting: 0.3 mg/kg ip 30 minutes after surgery.

Turning to `CN1[C@@H]2C[C@@H](OC(=O)[C@H](CO)c3ccccc3)C[C@H]1[C@@H]1O[C@@H]12` [Scopolamine], in test [1] (setting [3]), the “TE (number of total errors)” value worked out at 5.6 ± 0.9 and the “WME (number of working memory errors)” value was 4.6 ± 1.2.
On to `Cn1ncc(NCCN2CCC(c3noc4cc(F)ccc34)CC2)c(Cl)c1=O` [Formula (I), 4-chloro-5-{2-[4-(6-fluoro-1,2-benz[d]isoxazole-3-yl)piperidine-1-yl]ethyl-amino}-2-methyl-3-(2H)pyridazinone], for which the ICR (number of initial correct responses) in test [1] (setting [4]) was 6 ± 0.4. For the same molecule, in test [1] (setting [4]), the “TE (number of total errors)” value is 2.3 ± 0.5^+. Also, in test [1] (setting [4]), the “WME (number of working memory errors)” value was 1.5 ± 0.5^+. Further, in test [1], the “degradation of memory resulting from scopolamine treatment” value was “significantly prevented the degradation of memory”. Moreover, the “Dead cerebral volume mm^3 ± SE” value is 64.33 ± 7.66 mm^3 in test [2] (setting [5]), 45.70 ± 4.11 mm^3 in test [2] (setting [6]), 62.63 ± 4.86* mm^3 in test [2] (setting [7]) and 61.79 ± 2.69* mm^3 in test [2] (setting [8]). The Effect % is recorded as 0% in test [2] (0.01 mg/kg ip), −29% in test [2] (0.03 mg/kg ip), −15% in test [2] (0.1 mg/kg ip) and −16% in test [2] (0.3 mg/kg ip). Besides, in test [2] (0.03 mg/kg i.p.), the cerebral infarct size entry is reported as “decreased the cerebral infarct size in statistically significant manner”.
For the molecule `Cc1nc2n(c(=O)c1CCN1CCC(c3noc4cc(F)ccc34)CC1)CCCC2` [Risperidone, 3-(2-(4-(6-fluoro-1,2-benz[d]isoxazole-3-yl)-1-piperidinyl)-ethyl)-6,7,8,9-tetrahydro-2-methyl-4H-pyrido[1,2-a]pyrimidin-4-one], the “TE (number of total errors)” value in test [1] (setting [4]) was determined as 6.0 ± 0.3. Further, the “WME (number of working memory errors)” value in test [1] (setting [4]) was 4.2 ± 0.3. Moreover, the “degradation of memory resulting from scopolamine treatment” value in test [1] was “did not show a significant effect”. In addition, the “Dead cerebral volume mm^3 ± SE” value in test [2] (setting [5]) came out at 65.91 ± 6.08 mm^3; in test [2] (setting [6]) it was 69.09 ± 5.71 mm^3; in test [2] (setting [7]), 62.17 ± 5.17 mm^3; in test [2] (setting [8]) it was 72.07 ± 5.48 mm^3. Also, the Effect % in test [2] (0.01 mg/kg ip) is −1%; in test [2] (0.03 mg/kg ip), 4%; in test [2] (0.1 mg/kg ip), −8%; in test [2] (0.3 mg/kg ip) it was 7%. Also, the cerebral infarct size entry in test [2] (dosage range 0.01-0.3 mg/kg ip.) is reported as “ineffective”.
